Whole data set: some 81,000 sequences, median “one-hybrid fitness for binding parS DNA” near -0.17, cut for the highest 2% near 0.51. The list shows a part of the results.
B1: Caulobacter ParB omega fusion; a variant is named by its letters at X, in order, B8GW30 (parent)
chain: MESVVVGEPGMSEGRRGLGRGLSALLGEVDAAPAQAPGEQLGGSREAPIEILQRNPDQPRRTFREEDLEDLSNSIREKGVLQPILVRPSPDTAGEYQIVAGERAWRAAQRAGLKTVPIMVRELDDLAVLEIGIIENVQRADLNVLEEALSYKVLMEKFERTQENIAQTIGKSXSHVANXMRLLXLPDEVQSYLVSGELTAXHARAIAAAADPVALAKQIIEGGLSVRETEALARKAPNLSAGKSKGGRPPRVKDTDTQALESDLSSVLGLDVSIDHRGSTGTLTITYATLEQLDDLCNRLTRGI

Variants of: B1
Assay: one-hybrid fitness for binding parS DNA (scaled: cognate 1, non-cognate 0); higher = stronger binding
Details: with parS DNA site
Summary of the method: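 On M9-minus-histidine containing 0.1 mM IPTG and 5 mM 3-AT, E. coli USO cells with a HIS3 reporter, site 19 bp from the promoter, grew 48 hours at 37°C to select Caulobacter ParB libraries randomised at four specificity codons. Plasmids from before and after were Illumina-sequenced, with three replicate libraries pooled and variants under 10 reads left out. Fitness is the log change in variant-to-wild-type read ratio, rescaled against cognate and non-cognate.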

Row | Variant | one-hybrid fitness for binding parS DNA
1 | QQFY | ≤ 0.2
2 | TFTG | ≤ 0.2
3 | HRRY | ≤ 0.2
4 | CCHR | ≤ 0.2
5 | TCNT | ≤ 0.2
6 | QQKW | ≤ 0.2
7 | ELKC | ≤ 0.2
8 | AADM | ≤ 0.2
9 | DRDL | ≤ 0.2
10 | APNC | ≤ 0.2
11 | DLWR | ≤ 0.2
12 | ASQE | ≤ 0.2
13 | TDYN | ≤ 0.2
14 | AEHL | ≤ 0.2
15 | LLNE | ≤ 0.2
16 | PPPN | ≤ 0.2
17 | CCKT | ≤ 0.2
18 | APKT | ≤ 0.2
19 | QPIV | ≤ 0.2
20 | QRCN | ≤ 0.2
21 | LDDL | ≤ 0.2
22 | HLMS | ≤ 0.2
23 | MFAV | ≤ 0.2
24 | QLQS | ≤ 0.2
25 | KLAS | ≤ 0.2
26 | WNGR | ≤ 0.2

Row | Variant | one-hybrid fitness for binding parS DNA
27 | SFTR | ≤ 0.2
28 | PHGG | ≤ 0.2
29 | HAQN | ≤ 0.2
30 | WKQG | ≤ 0.2
31 | QVCP | ≤ 0.2
32 | SCKV | ≤ 0.2
33 | TADM | ≤ 0.2
34 | FDVS | ≤ 0.2
35 | VSSG | ≤ 0.2
36 | WIKE | ≤ 0.2
37 | PDFG | ≤ 0.2
38 | PFFD | ≤ 0.2
39 | RVMF | 0.243
40 | LTRN | ≤ 0.2
41 | PCWT | ≤ 0.2
42 | HEKT | ≤ 0.2
43 | NLFS | ≤ 0.2
44 | EFST | ≤ 0.2
45 | DPVE | ≤ 0.2
46 | DKLV | ≤ 0.2
47 | PWTS | ≤ 0.2
48 | HRWG | ≤ 0.2
49 | RPCV | ≤ 0.2
50 | RWDE | ≤ 0.2
51 | LMTH | ≤ 0.2
52 | PRTI | ≤ 0.2

Row | Variant | one-hybrid fitness for binding parS DNA
53 | TQDL | ≤ 0.2
54 | WCKC | ≤ 0.2
55 | PSEW | ≤ 0.2
56 | QDKR | ≤ 0.2
57 | NLQG | ≤ 0.2
58 | TRRM | ≤ 0.2
59 | YAYS | ≤ 0.2
60 | SYTS | ≤ 0.2
61 | YKAY | ≤ 0.2
62 | KNER | ≤ 0.2
63 | VRDH | ≤ 0.2
64 | MYWR | ≤ 0.2
65 | LWVD | ≤ 0.2
66 | DNDK | ≤ 0.2
67 | SRGN | ≤ 0.2
68 | AAAT | ≤ 0.2
69 | ASCD | ≤ 0.2
70 | LNMQ | ≤ 0.2
71 | YAQS | ≤ 0.2
72 | ADAM | ≤ 0.2
73 | RIQT | 0.886
74 | ANMN | ≤ 0.2
75 | ATCG | ≤ 0.2
76 | QQFF | ≤ 0.2
77 | RDVR | ≤ 0.2
78 | VCTD | ≤ 0.2

Row | Variant | one-hybrid fitness for binding parS DNA
79 | ATLE | ≤ 0.2
80 | STPE | ≤ 0.2
81 | ARKV | ≤ 0.2
82 | RVCG | 0.972
83 | STNY | ≤ 0.2
84 | EQPT | ≤ 0.2
85 | FFIG | ≤ 0.2
86 | TILC | ≤ 0.2
87 | GPVN | ≤ 0.2
88 | RIFW | 0.215
89 | ERAA | ≤ 0.2
90 | CKKR | ≤ 0.2
91 | AAVT | ≤ 0.2
92 | REGC | ≤ 0.2
93 | RSHW | 0.213
94 | HWRV | ≤ 0.2
95 | HKLS | ≤ 0.2
96 | PNIC | ≤ 0.2
97 | RYMT | 0.887
98 | EIRR | ≤ 0.2
99 | EFTC | ≤ 0.2
100 | NSCD | ≤ 0.2
101 | MPPL | ≤ 0.2
102 | MTSR | ≤ 0.2
103 | VKGR | ≤ 0.2
104 | LRIG | ≤ 0.2

Row | Variant | one-hybrid fitness for binding parS DNA
105 | MMDT | ≤ 0.2
106 | GSVP | ≤ 0.2
107 | KDAD | ≤ 0.2
108 | SFHC | ≤ 0.2
109 | SMNL | ≤ 0.2
110 | LWYS | ≤ 0.2
111 | SPHG | ≤ 0.2
112 | LGVR | ≤ 0.2
113 | MAYI | ≤ 0.2
114 | KPVA | ≤ 0.2
115 | AFAS | ≤ 0.2
116 | TGRH | ≤ 0.2
117 | TSYM | ≤ 0.2
118 | VFSC | ≤ 0.2
119 | TYTK | ≤ 0.2
120 | DTEY | ≤ 0.2
121 | MNSS | ≤ 0.2
122 | GNHA | ≤ 0.2
123 | DHLS | ≤ 0.2
124 | QSEE | ≤ 0.2
125 | RNSL | ≤ 0.2
126 | GDIL | ≤ 0.2
127 | QHQN | ≤ 0.2
128 | RGQW | ≤ 0.2
129 | AYFL | ≤ 0.2
130 | GGRI | ≤ 0.2

Row | Variant | one-hybrid fitness for binding parS DNA
131 | QKYA | ≤ 0.2
132 | LSSY | ≤ 0.2
133 | LDVA | ≤ 0.2
134 | TWST | ≤ 0.2
135 | TKFN | ≤ 0.2
136 | RAFP | ≤ 0.2
137 | KRDW | ≤ 0.2
138 | PPLS | ≤ 0.2
139 | TMAS | ≤ 0.2
140 | TSKY | ≤ 0.2
141 | HCGS | ≤ 0.2
142 | SHNE | ≤ 0.2
143 | WLLS | ≤ 0.2
144 | ANAG | ≤ 0.2
145 | QHQW | ≤ 0.2
146 | EMKT | ≤ 0.2
147 | KLST | ≤ 0.2
148 | NDSN | ≤ 0.2
149 | QKDS | ≤ 0.2
150 | VSNM | ≤ 0.2
151 | EYHK | ≤ 0.2
152 | FHTW | ≤ 0.2
153 | AQAM | ≤ 0.2

Source: a collection of fitness landscapes (doi:10.1016/j.celrep.2020.107928)
